# Assay results: PubChem BioAssay AID540317 (National Center for Advancing Translational Sciences (NCATS), 2011)
# In all, about 390,000 compounds went through this assay and about 2,200 (0.56%) were called active. Inconclusive results, whose numbers are uncertain, are shown with a selection of clear calls. The call rests on the fitted dose curve; in most records, active means well fitted inhibition curve with a large enough effect; inconclusive means small, poorly fitted or top-dose-only effect; inactive means no such curve, though single readings can be large or run the other way. Potencies of inconclusive entries are doubtful fits and often do not repeat.
# Target: Chromobox protein homolog 1 (Homo sapiens) (UniProt P83916)
# UniProt P83916, sequence (P83916 whole entry, looked up): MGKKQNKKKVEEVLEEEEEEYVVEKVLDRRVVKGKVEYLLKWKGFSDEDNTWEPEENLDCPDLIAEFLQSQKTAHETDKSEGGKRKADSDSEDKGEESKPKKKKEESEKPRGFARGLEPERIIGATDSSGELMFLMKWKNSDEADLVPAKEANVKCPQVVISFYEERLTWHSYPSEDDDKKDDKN
# Assay: HTS for Inhibitors of HP1-beta Chromodomain Interactions with Methylated Histone Tails; further: nearly all actives have a fitted effect of over 70% in size
# Details: AlphaScreen HP1-beta / biotin-H3K9me3 peptide binding; series mostly up to 114 µM; activity change, negative = inhibition: at the top concentration
# In short: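 Compound inhibition of the preformed complex between 50 nM HP1-beta and 50 nM biotinylated H3K9me3 peptide was read by AlphaScreen. Buffer was PBS pH 7.4 with 0.01% Tween-20. Incubations ran 30 min at room temperature, with 10 ug/mL donor/acceptor beads.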
# Potency means the concentration at half of the fitted maximal effect; tags describe the fitted curve by direction and shape.
Structure (SMILES),Potency,"activity change, negative = inhibition"
CC(C)N=c1cc2n(-c3ccc(Cl)cc3)c3ccccc3nc-2cc1Nc1ccc(Cl)cc1,active: 4.47 µM,–
COc1ccc(NC2=C(NC(C)=O)C(=O)c3ccccc3C2=O)cc1,"inconclusive: 79.4 µM [inhibitor, partial curve]",–
COc1ccc(C2=CC(c3ccccc3Cl)n3nc(-c4ccc(C)cc4)nc3N2)cc1 (stereo not drawn),–,inactive: -11.3%
S=c1[nH]nc(NCCc2ccccc2)s1,"inconclusive: 22.4 µM [inhibitor, full curve]",–
Cc1ccc(C(=O)N/C(=C/c2ccco2)C(=O)Nc2cccc(C)c2)cc1,"inconclusive: 56.2 µM [inhibitor, single point]",–
Cc1cc(C)nc(N/N=C/c2cc(Br)ccc2O)n1,–,inactive: 45.9%
COc1ccc(-c2nc(O)c3cnccn23)cc1,–,inactive: 16.8%
CC1CN(CCOc2ccccc2-c2ccccc2)CC(C)O1 (stereo not drawn),"inconclusive: 3.16 µM [inhibitor, partial curve, poor fit]",–
O=C(O)C1Sc2[nH]c(=O)sc2C2c3ccc(O)cc3OC(=O)C12 (stereo not drawn),"inconclusive: 11.2 µM [inhibitor, partial curve, poor fit]",–
Cc1cccc(NC(=O)COc2ccc(/C=C\c3[nH]c(=O)[nH]c(=O)c3[N+](=O)[O-])cc2)c1,"inconclusive: 70.8 µM [inhibitor, partial curve]",–
CCN(CC)c1ccc(NC(=O)CN(C)S(=O)(=O)c2cccc3nsnc23)c(C)c1,"inconclusive: 44.7 µM [inhibitor, partial curve]",–
O=C1CCCc2c1oc1c2CCCC1,"inconclusive: 70.8 µM [inhibitor, partial curve, poor fit]",–
Cc1cc(Cl)c(OCCCCN2CCOCC2)c(Br)c1,"inconclusive: 39.8 µM [inhibitor, partial curve, poor fit]",–
COc1ccc(NC(=O)/C(Cl)=C(/Cl)S(=O)Cc2ccc(Cl)cc2)cn1 (stereo not drawn),–,inactive: 50.2%
Cc1ccc([N+](=O)[O-])cc1NC(=O)CN(C(=O)c1ccc(Cl)cc1)C1CCCCC1,"inconclusive: 31.6 µM [inhibitor, partial curve, poor fit]",–
COCCn1c(-c2ccc(Cl)cc2)cnc1SCC(=O)NCc1cccs1,"inconclusive: 7.94 µM [inhibitor, full curve]",–
CC1CCCN(c2nc(N(C)c3ccccc3)nc(N)c2[N+](=O)[O-])C1 (stereo not drawn),"inconclusive: 50.1 µM [inhibitor, partial curve]",–
Cc1c(C(=O)Nc2ccccc2N2CCN(C)CC2)oc2ccc(F)cc12,"inconclusive: 79.4 µM [inhibitor, single point]",–
Nc1ccc2c(c1)C(=O)c1ccccc1-2,"inconclusive: 50.1 µM [inhibitor, partial curve, poor fit]",–
COc1ccc(C(=S)NC2CCCCC2)cc1,"inconclusive: 15.8 µM [inhibitor, full curve]",–
O=C(CCc1ccc(Oc2cc([N+](=O)[O-])cc([N+](=O)[O-])c2)cc1)N1CCCCCC1,"inconclusive: 12.6 µM [inhibitor, full curve, poor fit]",–
C/C(=N\NC(=O)C1CCCC1)c1ccc(C(C)C)cc1,–,inactive: 28.9%
CC1CCCC(NC(=O)CNCc2ccccc2F)C1C (stereo not drawn),"inconclusive: 50.1 µM [inhibitor, partial curve, poor fit]",–

Structure (SMILES),Potency,"activity change, negative = inhibition"
CCOC(=O)c1cccc(Nc2cc(C)nc(C)n2)c1,–,inactive: 40.1%
COc1cc(C(C)=O)ccc1OCC(=O)NCC1(N2CCCCC2)CCCCC1,–,inactive: 27.4%
C#CCOCCOCCOCCNc1nc(N2CCN(C(=O)CCCCCCCCCCNC(=O)Cn3cc(CCCCCN)nn3)CC2)nc(N2CCN(C(=O)CCCCCCCCCCNC(=O)[C@@H]([C@H](C)O)n3cc(C)nn3)CC2)n1,"inconclusive: 70.8 µM [inhibitor, single point]",–
COc1ccc(C(=S)N2CCOCC2)cc1OC(=O)c1ccccc1,"inconclusive: 50.1 µM [inhibitor, partial curve, poor fit]",–
Cc1ccc(S(=O)(=O)Nc2ccc3c(c2)c(C(=O)OC(C)C)c(C)n3S(=O)(=O)c2ccc(C)cc2)cc1,–,inactive: 34.1%
COc1ccccc1N=c1scc(-c2ccc3c(c2)NC(=O)CO3)n1CC1CCCO1 (stereo not drawn),"inconclusive: 50.1 µM [inhibitor, partial curve]",–
O=C(C1=C(O)C(=O)N(c2nc3ccc(Cl)cc3s2)C1c1ccco1)c1ccco1 (stereo not drawn),active: 28.2 µM,–
S=c1[nH]nc(-c2cccs2)n1/N=C/c1cn(-c2ccccc2)nc1-c1ccccc1,"inconclusive: 50.1 µM [inhibitor, partial curve]",–
NS(=O)(=O)c1ccc(CNC(=O)CCSCCC(=O)NCc2ccc(S(N)(=O)=O)cc2)cc1,"inconclusive: 56.2 µM [inhibitor, single point]",–
Cc1ccc(C)c(S(=O)(=O)/N=C2\C=C(NS(=O)(=O)c3ccccc3)C(=O)c3ccccc32)c1,"inconclusive: 14.1 µM [inhibitor, full curve]",–
COc1ccc(-c2nc(SCC(=O)Nc3cccc(C(C)=O)c3)n[nH]2)cc1,–,inactive: 33.8% [at 57 µM]
COc1cccc(CN2CCN(C(=O)c3ccc(-c4ccccc4)cc3)CC2)c1,active: 31.6 µM,–
CCOC(=O)c1c(/N=C/c2ccc(C)cc2O)sc2c1CCN(C)C2,"inconclusive: 28.2 µM [inhibitor, partial curve, poor fit]",–
C=CCOc1ccc(/C=C/C(=O)OCC(=O)NCc2ccco2)cc1,"inconclusive: 3.55 µM [inhibitor, partial curve, poor fit]",–
NNC(=O)c1nnsc1-c1csnn1,–,inactive: 22.5%
CC(C)CC(=O)N1CCN(Cc2ccccc2Br)CC1,"inconclusive: 14.1 µM [inhibitor, partial curve, poor fit]",–
COc1cc(/C=C/c2nc(C#N)c(NC(C)c3ccccc3)o2)cc(OC)c1OC (stereo not drawn),–,inactive: 3.02%
Cn1cccc1/C=C1\SC(=S)N(NC(=O)c2ccccc2)C1=O,"inconclusive: 50.1 µM [inhibitor, single point]",–
COc1ccc(C(=O)Nc2ccc(S(=O)(=O)N3CCCCC3)cc2)cc1OC,"inconclusive: 70.8 µM [inhibitor, partial curve, poor fit]",–
Cn1cc(/C=N/Nc2ccccc2)c2ccccc21,"inconclusive: 39.8 µM [inhibitor, partial curve]",–
O=C(CCCN1C(=O)/C(=C/c2ccco2)SC1=S)Nc1cccc(C(=O)O)c1,"inconclusive: 56.2 µM [inhibitor, partial curve]",–
CN(C)c1ccc(C(CNC(=O)c2ccccc2Cl)N2CCc3ccccc32)cc1 (stereo not drawn),"inconclusive: 17.8 µM [inhibitor, full curve]",–
Cc1ccc(Cn2c(C(=O)O)c(CNCCc3cccs3)c3ccc(C)cc32)cc1,"inconclusive: 6.31 µM [inhibitor, single point]",–

Structure (SMILES),Potency,"activity change, negative = inhibition"
CCOC(=O)N1CCN(Cc2nc3ccc([N+](=O)[O-])cc3c(=O)n2-c2ccc(OC)cc2OC)CC1,"inconclusive: 89.1 µM [inhibitor, single point]",–
CCOC(=O)CSc1nnc(NC(=O)c2ccco2)s1,–,inactive: 18.8%
O=C(NCc1ccc(Cl)cc1)NCC(F)(F)F,"inconclusive: 39.8 µM [inhibitor, single point]",–
CCOc1ccc(NC(=O)CN2C(=O)NC(C)(c3ccc(OC(F)F)cc3)C2=O)cc1 (stereo not drawn),–,inactive: 23.6% [at 57 µM]
Cc1cccc(NC(=S)NNC(=O)c2csc3c2CCC(C)C3)c1 (stereo not drawn),–,inactive: -16.4%
Cc1ccccc1NC(=O)c1c(C)oc2ccc(O)c(CN3CCCC(C)C3)c12 (stereo not drawn),–,inactive: 36.2%
CN1/C(=C/C(=S)NC(=O)C2CCC2)C(C)(C)c2ccccc21,"inconclusive: 17.8 µM [inhibitor, full curve]",–
COc1ccc(CN2CCN(c3ncccn3)CC2)c(C)c1C,"inconclusive: 15.8 µM [inhibitor, full curve, poor fit]",–
Cc1ccc(CN2CCN(C(=O)c3ccncc3)CC2)cc1,"inconclusive: 14.1 µM [inhibitor, partial curve, poor fit]",–
CC1CCCC(N2CCN(S(=O)(=O)c3ccccc3)CC2)C1 (stereo not drawn),"inconclusive: 56.2 µM [inhibitor, partial curve, poor fit]",–
Cc1ccc(S(=O)(=O)N(CC(=O)Nc2ccc(C)c(Cl)c2)C(=O)N2CCN(C)CC2)cc1,–,inactive: 18%
NC(=NCCc1c[nH]c2ccccc12)NC(=O)c1ccc(F)cc1,"inconclusive: 44.7 µM [inhibitor, partial curve, poor fit]",–
OCCC1CN(Cc2cccc(C(F)(F)F)c2)CCN1Cc1ccccc1 (stereo not drawn),–,inactive: 1.94%
COc1cccc(OCCNc2cc(Cl)ccc2[N+](=O)[O-])c1,"inconclusive: 31.6 µM [inhibitor, partial curve]",–
COc1cccc(C2CC(=O)Nc3c2c(=O)[nH]c2ncnn32)c1OC (stereo not drawn),–,inactive: 14.8%
Fc1ccc(-c2csc3ncnc(Cl)c23)cc1,"inconclusive: 25.1 µM [inhibitor, single point]",–
Nc1nc(F)cc(NCc2ccccc2)n1,–,inactive: 30.9%
Cc1ccc(N2CSC3=C(C#N)C(c4cccs4)CC(=O)N3C2)cc1 (stereo not drawn),"inconclusive: 17.8 µM [inhibitor, full curve, poor fit]",–
O=c1c2sc3ccccc3c2n(Cc2ccc(F)cc2)c(=O)n1Cc1ccco1,–,inactive: 23%
c1ccc2sc(SN3CCOCC3)nc2c1,"inconclusive: 35.5 µM [inhibitor, single point]",–
Cc1sc2nc(CSc3ccccc3)nc(NCCN(C)C)c2c1C,"inconclusive: 31.6 µM [inhibitor, partial curve, poor fit]",–
COc1ccc(Cl)cc1NC(=O)CNCc1cccs1,"inconclusive: 22.4 µM [inhibitor, single point]",–
